# Reference: PubChem BioAssay (Tox21)
# Several values for one entry are separate records, joined by “and”; a condition that tells them apart may be missing. Equal entries are not always repeated. The inconclusive results got no clear call from the source; some entries with a clear call stand among them for comparison. For some of these results: A potency beside an inconclusive call is a rough fit, not a confirmed value. Some compounds were tested as several samples or in several runs, with calls that do not always agree. Activity calls are given as the source filed them. Unless noted, calls follow the shape of the dose curve; as a rule, active = well fitted curve in the direction sought with a large enough effect in the repeat runs; inconclusive = weak or mixed curves; inactive = no such curve, though single readings can be large; an effect the other way counts as inactive or inconclusive.
# Legend:
# [1] = A CellTox Green Cytotoxicity Assay to monitor cytotoxicity in HepG2 cells - 8 hour (AID 1224890); also: nearly all actives have a fitted effect of over 45% in size
# In short: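 Real-time cytotoxicity: fluorescence of a cell-impermeant cyanine dye binding DNA of dead HepG2 cells, measured repeatedly (0–40 h) during compound exposure at 37 C. Cells seeded 600/well with reagent, dosed after 5 h.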
# [2] = qHTS assay to identify small molecule antagonists of the estrogen receptor alpha (ER-alpha) signaling pathway using the BG1 cell line in the presence of 0.1 nM 17-beta-estradiol - cell viability counter screen (AID 1259241); also: nearly all actives have a fitted effect of over 40% in size
# In short: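 Measures cytotoxicity alongside the ER-alpha antagonist readout: VM7Luc4E2 cells, charcoal-stripped serum, 0.1 nM 17beta-estradiol final, 22 hr compound incubation at 37C, CellTiter-Fluor fluorescence.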
# [3] = target: Estrogen receptor (Homo sapiens) (UniProt P03372); assay: qHTS assay to identify small molecule antagonists of the estrogen receptor alpha (ER-alpha) signaling pathway using the BG1 cell line in the presence of 0.1 nM 17-beta-estradiol (AID 1259244); also: nearly all actives have a fitted effect of over 50% in size
# Chain of UniProt P03372 (P03372 whole entry, looked up): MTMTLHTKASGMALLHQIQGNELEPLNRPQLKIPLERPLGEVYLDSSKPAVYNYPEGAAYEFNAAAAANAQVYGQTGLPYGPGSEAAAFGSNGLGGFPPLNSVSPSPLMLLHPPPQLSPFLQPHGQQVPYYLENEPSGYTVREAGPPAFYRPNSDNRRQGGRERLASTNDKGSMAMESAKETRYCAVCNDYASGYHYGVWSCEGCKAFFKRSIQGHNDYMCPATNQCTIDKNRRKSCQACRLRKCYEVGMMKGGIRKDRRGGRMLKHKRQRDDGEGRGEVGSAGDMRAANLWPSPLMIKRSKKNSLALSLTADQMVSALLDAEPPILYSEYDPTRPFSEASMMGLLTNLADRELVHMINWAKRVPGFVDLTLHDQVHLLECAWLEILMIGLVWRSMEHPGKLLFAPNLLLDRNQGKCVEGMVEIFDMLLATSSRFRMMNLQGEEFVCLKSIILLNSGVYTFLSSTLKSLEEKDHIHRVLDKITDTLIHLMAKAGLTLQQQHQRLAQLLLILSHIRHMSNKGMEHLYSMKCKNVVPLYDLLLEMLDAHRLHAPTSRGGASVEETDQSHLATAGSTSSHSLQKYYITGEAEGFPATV
# In short: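 Luciferase luminescence (ONE-Glo, 30 min at room temperature) was read after 22 hr at 37C exposure to compounds plus 17beta-estradiol at 0.1 nM final. Cells were VM7Luc4E2 with endogenous ER-alpha and an ERE-driven luciferase, pre-cultured 5 days in hormone-depleted medium.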
# [4] = qHTS assay to identify small molecule phospholipidosis (PLD) inducers (AID 1259344; active = well fitted curve in the direction sought with a large enough effect; inconclusive = small, poorly fitted or top-dose-only effect, or another doubt; inactive = no such curve, though single readings can be large; an effect the other way counts as inactive or inconclusive)
# In short: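 Phospholipid accumulation was scored by imaging: fixed, Hoechst-counterstained HepG2 cells stained with LipidTOX Red after 24 h compound exposure at 37 C. Read-outs were pit count and pit intensity per well or per cell, with amiodarone and DMSO controls.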
# [5] = qHTS assay to identify small molecule antagonists of the sonic hedgehog signaling (Shh) pathway - cell viability counter screen (AID 1259367); also: nearly all actives have a fitted effect of over 55% in size
# In short: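 Viability was read by CellTiter-Fluor fluorescence in the same wells, reagent added 23 hr into compound treatment and incubated 1 hr at 37C. The 3T3 Gli1-Luc reporter cells (2,000/well) received conditioned medium after compound and ran 24 hr.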
# [6] = qHTS assay to identify small molecule antagonists of the sonic hedgehog signaling (Shh) pathway (AID 1259369; calls by dose curve; also: nearly all actives have a fitted effect of over 45% in size)
# In short: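 Antagonist mode: compound added to 3T3 Gli1-Luc cells followed by conditioned-medium stimulation, 24 h at 37 C, 5% CO2. Inhibition taken as loss of Gli1-driven luciferase luminescence.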
# [7] = target: Estrogen receptor beta (Homo sapiens) (UniProt Q92731); assay: qHTS assay to identify small molecule antagonists of the estrogen receptor beta (ER-beta) signaling pathway (AID 1259378; active = well fitted inhibition curve with a large enough effect in the signal ratio in the repeat runs, not every such curve was filed as active; inconclusive = weak or mixed curves, or effect the other way; inactive = no such curve, though single readings can be large or run the other way; the % refers to the signal ratio; as to activity, negative = inhibition: % is scaled to controls: 0 for no effect and ±100 for the full control effect); details: ER-beta-UAS-bla HEK293T, beta-lactamase FRET ratio, 16 h; activity, negative = inhibition: at 92.4 µM (top of the series) unless noted
# Chain of UniProt Q92731 (Q92731 whole entry, looked up): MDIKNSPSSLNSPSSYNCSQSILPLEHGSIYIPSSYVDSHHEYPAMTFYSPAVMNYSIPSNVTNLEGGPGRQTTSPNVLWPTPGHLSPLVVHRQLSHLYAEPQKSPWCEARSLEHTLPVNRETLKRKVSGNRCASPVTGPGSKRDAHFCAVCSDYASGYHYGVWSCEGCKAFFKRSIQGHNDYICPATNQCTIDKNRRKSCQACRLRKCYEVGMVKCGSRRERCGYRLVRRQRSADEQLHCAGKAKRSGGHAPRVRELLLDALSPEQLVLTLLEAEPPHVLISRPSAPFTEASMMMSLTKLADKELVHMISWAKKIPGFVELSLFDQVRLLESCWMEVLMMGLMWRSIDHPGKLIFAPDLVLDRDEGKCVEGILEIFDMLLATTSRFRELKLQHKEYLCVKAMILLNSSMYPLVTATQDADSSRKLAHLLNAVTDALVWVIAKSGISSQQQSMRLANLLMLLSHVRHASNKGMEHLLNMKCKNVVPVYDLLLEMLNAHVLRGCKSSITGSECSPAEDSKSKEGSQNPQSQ
# In short: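 Antagonist mode: compounds added to beta-lactamase reporter HEK293T ER-beta-UAS cells stimulated with E2 (1nM final), 16 hr at 37C. LiveBLAzer B/G FRET substrate, 2 hours room temperature, fluorescence read-out.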
# [8] = qHTS assay to identify small molecule HDAC inhibitors (AID 1259364); also: nearly all actives have a fitted effect of over 45% in size
# In short: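 Luminescence read after 30 min room-temperature HDAC-Glo incubation measures cellular class I/II HDAC activity. Compounds were applied for 2 hr at 37 C to HCT-116 wild-type cells seeded the day before.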
# [9] = target: Androgen receptor (Homo sapiens) (UniProt P10275); assay: qHTS assay to identify small molecule antagonists of the androgen receptor (AR) signaling pathway using the MDA cell line in the presence of 0.5 nM R1881 (AID 1259243); also: nearly all actives have a fitted effect of over 50% in size
# Chain of UniProt P10275 (P10275 whole entry, looked up): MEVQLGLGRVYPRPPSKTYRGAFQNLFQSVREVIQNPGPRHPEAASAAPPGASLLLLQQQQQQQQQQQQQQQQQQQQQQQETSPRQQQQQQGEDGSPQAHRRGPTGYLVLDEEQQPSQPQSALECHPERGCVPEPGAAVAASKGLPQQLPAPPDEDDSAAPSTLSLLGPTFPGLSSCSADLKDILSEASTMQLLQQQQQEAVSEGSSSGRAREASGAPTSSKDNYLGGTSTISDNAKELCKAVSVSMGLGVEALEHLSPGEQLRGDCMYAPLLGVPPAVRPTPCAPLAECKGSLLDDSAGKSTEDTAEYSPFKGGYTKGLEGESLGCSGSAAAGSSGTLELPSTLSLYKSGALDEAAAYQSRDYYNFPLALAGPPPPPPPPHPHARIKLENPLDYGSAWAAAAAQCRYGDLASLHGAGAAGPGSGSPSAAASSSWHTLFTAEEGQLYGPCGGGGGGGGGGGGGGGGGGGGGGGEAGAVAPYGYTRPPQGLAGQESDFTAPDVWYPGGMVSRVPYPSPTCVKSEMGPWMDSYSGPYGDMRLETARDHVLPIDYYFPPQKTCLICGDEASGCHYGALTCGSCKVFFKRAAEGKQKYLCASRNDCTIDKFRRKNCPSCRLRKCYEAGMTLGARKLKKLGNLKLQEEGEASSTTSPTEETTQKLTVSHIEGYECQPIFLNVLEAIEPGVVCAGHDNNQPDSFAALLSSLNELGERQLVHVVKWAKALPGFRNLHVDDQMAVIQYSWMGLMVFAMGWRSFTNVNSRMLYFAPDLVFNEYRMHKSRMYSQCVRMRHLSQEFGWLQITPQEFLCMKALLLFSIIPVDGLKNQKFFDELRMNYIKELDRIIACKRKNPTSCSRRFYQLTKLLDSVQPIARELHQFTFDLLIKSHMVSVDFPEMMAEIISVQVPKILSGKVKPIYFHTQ
# In short: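 Luminescent reporter readout (ONE-Glo, 30 min, room temperature) after 16 hr co-treatment of MDA-kb2 cells with test compounds and 0.5 nM R1881 final, at 37C without CO2. The MMTV-driven luciferase responds to both AR and GR.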
# [10] = qHTS assay to identify small molecule agonists of the sonic hedgehog signaling (Shh) pathway - cell viability counter screen (AID 1259366); also: nearly all actives have a fitted effect of over 50% in size
# In short: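 After a 4hr attachment at 37C, NIH/3T3 cells bearing an integrated Gli1-driven luciferase reporter were dosed with compounds. Treatment lasted 24hr, with the final hour including CellTiter-Fluor for a fluorescence viability measurement.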
# [11] = target: Estrogen receptor beta (Homo sapiens) (UniProt Q92731); assay: qHTS assay to identify small molecule agonists of the estrogen receptor beta (ER-beta) signaling pathway (AID 1259377; active = well fitted activation curve with a large enough effect in the signal ratio in the repeat runs, not every such curve was filed as active; inconclusive = weak or mixed curves, or effect the other way; the % refers to the signal ratio; as to activation: % is scaled to controls: 0 for no effect and ±100 for the full control effect); details: ER-beta-UAS-bla HEK293T, beta-lactamase FRET ratio, 16 h; activation: at 92.4 µM (top of the series) unless noted
# In short: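 In HEK293T cells bearing a UAS-beta-lactamase reporter under ER-beta control, DMSO-delivered compounds were incubated for 16 hr at 37C. Activity was detected as fluorescence 2 hours after LiveBLAzer B/G FRET substrate addition.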
# [12] = qHTS assay to identify small molecule agonists of the androgen receptor (AR) signaling pathway in the presence of an antagonist - cell viability counter screen (AID 1259379); also: nearly all actives have a fitted effect of over 25% in size
# In short: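 Cytotoxicity counter-screen run in the same wells as the nilutamide-challenged (3.0 µM final) AR agonist assay in MDA-kb2 cells. Compounds tested at 15 concentrations for 16 h, 37 °C without CO2; CellTiter-Fluor fluorescence read.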
# [13] = qHTS assay to identify small molecule agonists of the estrogen receptor beta (ER-beta) signaling pathway - cell viability counter screen (AID 1259380); also: nearly all actives have a fitted effect of over 30% in size
# In short: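 Cell viability counter screen: CellTiter-Glo luminescence (30 min, room temperature) measured in the same wells as the beta-lactamase readout, after 16 hr compound exposure at 37C of ER-beta-bla HEK293T cells in 2% charcoal-stripped FBS medium.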
# [14] = qHTS assay to identify small molecule antagonists of the estrogen receptor beta (ER-beta) signaling pathway - cell viability counter screen (AID 1259382); also: nearly all actives have a fitted effect of over 55% in size
# In short: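 Cytotoxicity was measured in the same wells by CellTiter-Glo luminescence after 30 min at room temperature. Cells were ER-beta-bla HEK293T in charcoal-stripped serum, given compound together with 1 nM E2 and incubated 16 h at 37C.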
# [15] = qHTS assay to identify small molecule antagonists of the androgen receptor (AR) signaling pathway using the MDA cell line in the presence of 0.5 nM R1881 - cell viability counter screen (AID 1259242); also: nearly all actives have a fitted effect of over 45% in size
# In short: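 Live-cell protease activity was measured by CellTiter-Fluor fluorescence after 30 min. Before that, MDA-kb2 MMTV-luciferase cells had 16 hr at 37C without CO2, exposed to test compounds and 0.5 nM R1881 final.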
# [16] = qHTS assay to identify small molecule agonists or antagonists of the thyroid stimulating hormone receptor (TSHR) signaling pathway - wild type cell line counter screen (AID 1259384; calls by dose curve); details: HEK293 wild type, cAMP HTRF counter-screen; cAMP activity change: at 92.4 µM (top of the series), stronger effect = higher value unless noted
# In short: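 Counter screen in untransfected Hek293: compounds (15-point titration, triplicate) plus phosphodiesterase inhibitor Ro20-1724 added after 18 h plating; 30 min RT. Intracellular cAMP via competitive d2/cryptate immunoassay, 1 h incubation.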
# Potency is read from the fitted curve at half-maximal effect; tags tell the direction and shape of the fitted curve or compound fluorescence and quenching.
smiles,measurement,setting,value
O=C1NC2CCCCN2C12CCN(CCCN1c3ccccc3CCc3ccc(Cl)cc31)CC2 (configuration not stated),Potency,[1],"inconclusive: 23.9 µM [activator, single point]"
same,Potency,[2],"inconclusive: 33.5 µM [cytotoxic, single point]"
same,Potency,[3],"inconclusive: 33.5 µM [inhibitor, single point]"
same,Potency,[4],"inconclusive: 1.26 µM [activator, partial curve, poor fit]"
same,Potency,[5],active: 29.8 µM
same,Potency,[6],active: 21.1 µM
same,Potency,[7],active: 23.7 µM
COc1cc(C(C)(C)C)c(O)c(C(C)(C)C)c1,Potency,[1],"inconclusive: 54.9 µM [activator, single point]"
O=C1[C@@H]2[C@H]3CC[C@H](C3)[C@@H]2C(=O)N1CCCCN1CCN(c2ncccn2)CC1,Potency,[1],"inconclusive: 23.9 µM [activator, single point]"
same,Potency,[3],inactive
same,Potency,[8],inactive
same,Potency,[6],inactive
C[C@H]1[C@H]2CC[C@H]3[C@@H]4CC=C5C[C@@H](N(C)C)CC[C@]5(C)[C@H]4CC[C@]23CN1C,Potency,[1],"inconclusive: 15.1 µM [activator, single point]"
same,Potency,[9],"inconclusive: 16.8 µM [inhibitor, partial curve, poor fit]"
same,Potency,[10],inactive
same,Potency,[11],inactive
same,Potency,[12],"inconclusive: 8.41 µM [cytotoxic, partial curve, poor fit]"
O=C1Nc2ccc(Cl)cc2[C@@](C#CC2CC2)(C(F)(F)F)O1,Potency,[1],"inconclusive: 26.8 µM [activator, single point]"
same,Potency,[3],"inconclusive: 21.1 µM [inhibitor, partial curve]"
same,Potency,[4],"inconclusive: 12.6 µM [activator, partial curve, poor fit]"
same,Potency,[6],"inconclusive: 7.5 µM [inhibitor, full curve, poor fit]"
same,Potency,[7],active: 23.7 µM
same,Potency,[13],"inconclusive: 33.5 µM [cytotoxic, single point]"
same,Potency,[14],"inconclusive: 33.5 µM [cytotoxic, single point]"
c1cc(-c2ccncc2)ccn1,Potency,[1],inactive
same,Potency,[3],inconclusive: 49 µM [inhibitor]
Oc1c(Cl)cc(Cl)cc1Sc1cc(Cl)cc(Cl)c1O,Potency,[1],"inconclusive: 28 µM [activator, partial curve]"
same,Potency,[3],"inconclusive: 33.5 µM [inhibitor, single point]"
same,Potency,[10],"inconclusive: 38.6 µM [cytotoxic, partial curve] and inconclusive: 39.2 µM [cytotoxic, partial curve]"
same,Potency,[5],"inconclusive: 62.1 µM [cytotoxic, single point] and inconclusive: 24.3 µM [cytotoxic, full curve]"
same,Potency,[7],"inconclusive: 77.1 µM [cytotoxic, single point] and active: 27.8 µM and active: 7.7 µM"
same,"activity, negative = inhibition",[7],inconclusive: -49.4% [at 42.5 µM]
same,Potency,[14],"inconclusive: 69.7 µM [cytotoxic, single point] and inconclusive: 11.9 µM [cytotoxic, single point]"
Nc1ccc2cc(S(=O)(=O)O)ccc2c1,Potency,[1],inactive
O=C(c1ccccc1)C1CCCCC1,Potency,[1],"inconclusive: 61.6 µM [activator, partial curve, poor fit]"
COc1cccc2c1C(=O)c1c(O)c3c(c(O)c1C2=O)C[C@@](O)(C(=O)CO)C[C@@H]3O[C@H]1C[C@H](N)[C@H](O)[C@H](C)O1,Potency,[1],"inconclusive: 21.3 µM [activator, partial curve, poor fit]"
same,Potency,[2],"inconclusive: 24.3 µM [cytotoxic, partial curve] and active: 11.9 µM"
same,Potency,[15],"inconclusive: 24.3 µM [cytotoxic, partial curve] and inconclusive: 11.9 µM [cytotoxic, partial curve]"
same,Potency,[4],"inconclusive: 28.2 µM [activator, single point]"
same,Potency,[8],active: 11.9 µM
same,Potency,[11],"inconclusive: 0.862 µM [activator, partial curve]"
same,Potency,[7],active: 1.93 µM and active: 11.9 µM
same,Potency,[12],active: 15.3 µM and active: 11.9 µM
same,Potency,[16],inconclusive: 34.3 µM
CCCCCCCCCCCCOCCOCCOCCOCCOCCOCCOCCOCCOCCO,Potency,[1],"inconclusive: 23.9 µM [activator, single point]"
same,Potency,[2],active: 13.3 µM
same,Potency,[15],active: 21.1 µM
same,Potency,[10],inactive
same,Potency,[6],active: 7.5 µM
same,Potency,[11],"inconclusive: 33.5 µM [falling, partial curve, poor fit]"
same,Potency,[7],active: 8.41 µM
same,Potency,[13],active: 26.6 µM
